From the supplement of paper PMC3334620
The full ranking holds about 33,000 sequences; the median of “E-score (-0.5 to 0.5)” is about -0.016, and the highest 2% start at about 0.32. The list shows a part of the results.

These sequences were tested against T1, Stp1 (UniProt B3LFK1) (assay: PBM E-score (8-mer binding enrichment) (E-score (-0.5 to 0.5)); higher = stronger / more preferred TF binding; most listed sequences are background and not binding sites). Details: protein concentration: 200 nM; construct: GST-full length.
T1 sequence: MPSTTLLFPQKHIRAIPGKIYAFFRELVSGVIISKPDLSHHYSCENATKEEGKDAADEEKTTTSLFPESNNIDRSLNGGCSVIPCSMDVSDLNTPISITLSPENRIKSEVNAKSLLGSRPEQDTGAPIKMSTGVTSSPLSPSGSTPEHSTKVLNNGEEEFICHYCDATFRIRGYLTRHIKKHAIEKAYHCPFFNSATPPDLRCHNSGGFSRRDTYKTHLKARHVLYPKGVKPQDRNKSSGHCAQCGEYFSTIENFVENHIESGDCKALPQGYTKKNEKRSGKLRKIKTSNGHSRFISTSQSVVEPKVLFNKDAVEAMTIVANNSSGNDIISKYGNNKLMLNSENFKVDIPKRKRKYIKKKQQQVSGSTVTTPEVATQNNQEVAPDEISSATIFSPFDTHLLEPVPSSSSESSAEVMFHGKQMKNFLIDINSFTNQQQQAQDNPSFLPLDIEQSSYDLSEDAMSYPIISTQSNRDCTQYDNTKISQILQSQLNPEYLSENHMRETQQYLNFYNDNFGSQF
How it was run: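 Full-length yeast transcription factors or their DNA-binding domains, GST-tagged and expressed with PURExpress, were applied at about 100-200 nM to universal all-10-mer Agilent arrays. These arrays had been made double-stranded by primer extension on fresh or once-stripped slides. Detection used fluorescent anti-GST, normalisation used masliner, and E-scores for ungapped eight-base words pooled with reverse complements came from the Universal PBM Analysis Suite.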

Sequence	PBM E-score
AACCAAAC	-0.241
ACCAAAAA	0.218
ATTTAGGC	0.112
CAGATCTC	-0.126
AGGCTCCC	-0.191
CCTTGCAC	0.127
CTGAGCAA	-0.0665
CTGAAAAG	-0.0563
CCGTGGCC	0.179
ATCCATGA	-0.224
CAGGACCA	-0.202
AGCCGAAG	-0.038
GAACGTTC	-0.216
ATTGCCAC	0.112
AGCGATTA	-0.0409
GAGCGTAC	-0.208
GCCAATGA	-0.174
GACGCTGC	-0.0804
AGTTACCC	-0.115
CTACCAAC	0.0028
CGTGAGGA	0.00424
ACTCAACA	0.103
GGACCGCA	-0.124
CTTACCGC	0.0411
AGACGCAG	-0.0897

Sequence	PBM E-score
ACCCTAGA	-0.227
ACTAAAGA	0.094
CAGTTTTA	-0.191
CGACGTAG	-0.258
ATGTACAG	-0.157
CAATTCGA	-0.0848
GCTTATCC	-0.0517
ATCAGGAT	0.0944
CTTCAAAG	0.0712
CCAGGTAG	-0.222
CAGTCCAC	-0.13
ACATCAAA	-0.00264
CCAAAGGA	-0.101
GGATCGAC	0.0234
ACCGTACG	0.151
ACAACCCT	-0.228
ATTTGAAA	0.111
ATCCGGTA	-0.169
AGAATTTC	-0.103
AGAGATGC	-0.138
ATGTCCAG	-0.126
ATCCGGAT	-0.0475
AACTGCAT	0.115
TGACGCAA	-0.0616
CCAGCTTA	-0.0984

Sequence	PBM E-score
AATATAAG	0.32
GGCAGAGA	0.111
CACCGGCG	0.193
AATACTGT	0.249
AACCTGAT	0.0885
TAATGTGA	-0.024
ATGGAGCC	0.0188
AGTGGGGG	-0.308
AGAAGTTG	-0.182
AATATGCT	0.0269
ACGAATCA	0.0929
CGGCCATC	-0.115
CAATCCTC	-0.155
AAGCACTG	-0.0483
TATAAGCA	0.154
GTACCTGA	-0.0765
CCCCGGGC	-0.211
CTGTGGAC	-0.287
CAAGGCAC	0.356
GTAGTTCA	-0.191
CCGTTTGC	0.284
GAGGACTC	-0.365
AGATATTG	0.0872
AACTCCTA	-0.0956
ACAGTACG	-0.0233

Sequence	PBM E-score
GATACGAA	-0.0507
CCGCAATA	0.0622
CAACAAAG	-0.0202
GACGCCGC	0.453
ACCCGGCA	0.108
GGTGCTTA	-0.103
ACTCTATC	-0.0604
CAAATCGA	-0.0746
ATACGTTC	-0.0285
GCGTGAAC	-0.00583
CTATGAAG	-0.0397
AAGGTGGC	-0.145
CGTTTGAA	0.29
CGTACGAG	0.18
AATAGTAC	0.0128
CGATGAGC	-0.101
ATCGGGCG	-0.25
ATGCGCAT	0.144
AGCCTCAC	0.0764
CCGAATGA	0.0311
CGGCGCAC	0.409
AATGAACC	0.00909
ACCACCGT	-0.123
AATATTCC	0.202
ACGGGGGG	-0.313

Sequence	PBM E-score
AGTAGGGA	0.203
CTACGCTC	-0.203
ATCTCCTC	-0.209
AGTAAAAA	0.13
GCTCTGTA	-0.0805
AAGGGTTA	0.00685
AAATAATT	0.174
ATTTTGCG	0.123
CCGTCGAG	0.104
GCGCCCCC	-0.129
AGAGAACG	-0.0869
ATGTTTAA	-0.0475
AGGCGCGC	0.308
CTCCTGCA	-0.244
ATACTGTC	0.113
AGAAGTCA	-0.00985
GCTTTCAA	0.0639
CGTGCCAC	0.232
CATCCGAG	-0.122
GGCACACA	0.231
CGTGTTAA	0.108
CGACAGAA	0.174
GAGTCTAA	-0.0843
ACAAAGGG	-0.154
CGGCTACG	0.25

Sequence	PBM E-score
AGCGTGGA	-0.163
CGGTTCAA	-0.0478
GGGGTAAC	-0.212
GGAGCTCA	-0.177
ATTGCTAG	-0.0468
ACAGGCTC	-0.0278
AACATCGA	0.0516
CACAGCCG	0.327
CTCAGAAC	0.14
AGTCCTTA	-0.0931
CCGTTAAA	-0.00395
ATCACAAA	0.103
GCCAGGGA	-0.0384
CAGCCATC	-0.158
AGCGGGCG	-0.0865
ATACTACG	0.0658
CTATCCGC	0.219
GACCCAGC	-0.322
CTTATTGA	-0.0166
CAGGTCGG	-0.269
GCAGGAGA	-0.303
ACCACTTA	-0.0255
AGGCTTAG	0.0212
GCAAGGAA	0.0142
CAAAGTAC	0.0934

Sequence	PBM E-score
CACGAATA	0.031
AATTAAAC	0.122
AGATTCTA	0.152
ACCCGTAT	0.228
GCGTCTAC	-0.155
AGATATCT	-0.156
CTCGGTAA	-0.0899
AACAACAC	0.0941
CCATTCGG	0.14
AAGAGACT	-0.114
AAGCTTAT	0.162
AGATGGGC	-0.0834
TAGTAATA	0.151
ACTACCAT	-0.0853
ACTAGGGA	-0.282
ACGCCGAA	0.21
CAATAGGA	-0.016
CGAACCCG	0.0113
ACAAACGC	0.252
AACATTAC	0.0608
CATCAATA	-0.0571
CGAAACCA	0.194
ACCGATAT	-0.00052
CGTACGTA	0.205
AGCGCAGA	-0.0529

Sequence	PBM E-score
CGCGAAAC	0.0675
CGCCGGTA	-0.0704
CACGGGAG	-0.0449
CAGCCGAA	0.0173
ACGGGCCT	-0.00739
AAACTATT	-0.0623
GATCCGGC	-0.00579
CTCATATA	0.111
CGCATCCC	-0.175
GTTAAGTA	0.0335
AATATCGA	0.00691
ATGAATCC	-0.0822
CTGATGCA	-0.0407
ATGGTGAA	-0.0613
AAAACTAA	0.215
GCATTCCA	-0.00176
CCAGTGCG	-0.343
CATGTTGC	0.0394
ACCAATTC	-0.074
CGGCTCCA	0.425
CAAACAGA	0.0727
ATTCCGCC	0.125
CCGATGAC	-0.121
CCACTCGG	-0.0432
TATACGCA	0.156

Sequence	PBM E-score
AGTCGCGC	0.0334
ACAGCGAT	-0.163
CGTCCTGC	-0.219
CGATGACC	-0.31
ATCTTTAG	0.0678
ACAAGCGT	-0.135
ATGATAAG	0.0844
AATAAGGT	-0.117
ATCTAGGA	-0.116
ACACGGTG	0.154
CGGATCGA	0.0223
AAAGGCGA	0.0862
GGCGCTAC	0.269
CCACGGTC	-0.301
ACGACCAT	-0.324
CCAACCCA	-0.358
ATTCAGGC	0.0861
AGGTCAAT	-0.0414
AGAGCGTC	-0.166
